Test results from PubChem BioAssay AID488969 (Vanderbilt High Throughput Screening Facility, 2010).
Whole data set: some 110,000 compounds, median “z-score” near -0.1, cut for the highest 2% near 2. The list shows a part of the results. Calls of active or inactive are those of the source.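 Rule for the calls: active = z-score in the third read window above 3 or below -3; inactive = the rest.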

Target: Metabotropic glutamate receptor 8 (Rattus norvegicus) (UniProt P70579)
Experiment: mGluR8 Gi/Go-coupled signaling modulation – cell-based, rat, thallium flux, HTS, primary screen (AID 488969)
Settings: HEK293 rat mGluR8, GIRK (G protein-gated inwardly rectifying potassium channel) thallium flux, FluoZin2; at 10 µM; stronger effect = higher value; submaximal glutamate (EC20) added with thallium

Chain of UniProt P70579 (P70579 whole entry, looked up): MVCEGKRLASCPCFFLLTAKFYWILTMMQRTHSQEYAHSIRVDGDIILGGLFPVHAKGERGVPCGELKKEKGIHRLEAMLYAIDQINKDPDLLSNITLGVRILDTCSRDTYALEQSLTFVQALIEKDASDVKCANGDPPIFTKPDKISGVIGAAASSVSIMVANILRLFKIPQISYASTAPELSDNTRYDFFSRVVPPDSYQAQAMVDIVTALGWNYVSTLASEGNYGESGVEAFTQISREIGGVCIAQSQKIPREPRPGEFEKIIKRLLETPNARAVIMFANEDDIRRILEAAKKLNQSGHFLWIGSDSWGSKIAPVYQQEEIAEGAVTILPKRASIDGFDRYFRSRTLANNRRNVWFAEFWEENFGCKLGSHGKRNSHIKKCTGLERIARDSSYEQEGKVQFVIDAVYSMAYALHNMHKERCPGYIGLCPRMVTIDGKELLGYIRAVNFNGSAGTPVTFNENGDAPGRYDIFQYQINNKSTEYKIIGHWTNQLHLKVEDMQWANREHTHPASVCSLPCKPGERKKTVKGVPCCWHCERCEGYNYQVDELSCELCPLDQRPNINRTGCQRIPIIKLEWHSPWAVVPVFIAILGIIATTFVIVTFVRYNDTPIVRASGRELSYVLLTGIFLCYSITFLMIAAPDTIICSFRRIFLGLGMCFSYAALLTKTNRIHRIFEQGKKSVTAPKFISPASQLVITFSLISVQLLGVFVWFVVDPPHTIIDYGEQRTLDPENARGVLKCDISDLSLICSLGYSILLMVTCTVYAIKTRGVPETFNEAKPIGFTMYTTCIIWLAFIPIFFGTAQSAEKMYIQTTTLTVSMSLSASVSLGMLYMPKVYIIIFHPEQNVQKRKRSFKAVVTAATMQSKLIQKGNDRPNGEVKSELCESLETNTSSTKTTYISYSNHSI

Compound | z-score
CCCn1nnc(NC(=O)c2cccc(Cl)c2)n1 | 0.243
CCCN(CCC)C(=O)CSc1nc2n[nH]c(C)c2c(=N)n1-c1ccc(OCC)cc1 | 0.31
O=C(/C=C/c1ccccc1)NC(NC(=S)Nc1cc(Cl)ccc1Cl)C(Cl)(Cl)Cl (stereo not drawn) | active: 5.83
COc1cccc(OC)c1C(=O)Nn1c(C2CCC2)nc2ccccc2c1=O | -0.526
c1ccc2c(C3=NNC(=NC4CC4)SC3)c[nH]c2c1 | -0.159
O=C(C1CCCN1S(=O)(=O)c1ccc(Cl)c(Cl)c1)N1CCCCC1 (stereo not drawn) | 0.00619
O=c1oc(-c2cccc(Cl)c2)nc2c1cnn2-c1ccccc1 | -0.298
COc1ccccc1N1CCN(CC(=O)Nc2cc(F)ccc2C)CC1 | 0.0403
CCOC(=O)c1[nH]c(C)c(/C(O)=C2\C(=O)C(=O)N(CCCN3CCOCC3)C2c2cccnc2)c1C (stereo not drawn) | -0.228
CCOC(=O)c1nc2sc3c(c2c(=O)[nH]1)CCCC3 | -0.155
CS(=O)(=O)c1nncn1-c1ccccc1 | 0.00777
COc1ccc(NC(=O)[C@@H]2[C@@H]3C(=O)N(C4CCCCC4)C(=O)[C@@H]3C3c4ccccc4C=CN32)cc1 (stereo partly drawn) | -0.26
Cc1cc(C)n(-c2nnc(C)n2N)n1 | -0.422
Cc1cc2c(nn1)CCc1nonc1-2 | 0.0142
CSCCC(NC(=O)c1ccc(Cl)cc1)C(=O)OCC(=O)Nc1ccc(C#N)cc1 (stereo not drawn) | -1.13
COc1ccc(N2CCN(C(=S)Nc3cccc(C)c3)CC2)cc1 | 0.0394
Clc1ccc(-c2nc3ncccn3c2Nc2ccc3c(c2)OCCO3)cc1 | -0.233
Cc1ccc(Cl)cc1N1CCN(C(=O)c2ccc3nc[nH]c3c2)CC1 | -0.487
O=C1CCC(/C=C/c2ccccc2)=NN1Cc1ccccc1Cl | -0.293
c1ccc(Cn2c(-c3ccccc3)nc3nc4ccccc4nc32)cc1 | -0.33
Nc1c(-c2ccccc2)cnn1-c1ccc(C(=O)O)cc1 | active: -3.94
COc1ccc2nc(SCC(=O)Nc3ccc(S(=O)(=O)Nc4onc(C)c4C)cc3)[nH]c2c1 | 0.0692

Compound | z-score
Cc1cccc(NC(=O)Cn2nnc(-c3ccc(CN4CCCC4)cc3)n2)c1C | 0.187
COc1ccc([N+](=O)[O-])cc1NC(=O)C(C)Sc1nc(-c2ccccc2)cs1 (stereo not drawn) | -0.507
COC(=O)c1sc(=S)n(-c2ccccc2OC)c1N | -0.029
O=C(/C=C/c1ccco1)NCCCN1CCN(CCCNC(=O)/C=C/c2ccco2)CC1 | -0.329
CCN1C(=O)c2ccccc2S(=O)(=O)c2ccc(C(=O)N3CCOCC3)cc21 | -0.766
Nc1nc(CN2CCCCCC2)nc(Nc2ccccc2)n1 | 0.00781
CCCn1nnc(NC(=O)COc2ccc(Cl)cc2)n1 | -0.244
O=C(N/N=C/c1ccc(-c2ccccc2[N+](=O)[O-])o1)[C@H]1C[C@@H]1c1ccccc1 | -0.229
CCC(Sc1ccc2nnc(-c3ccc(F)cc3)n2n1)C(=O)OC (stereo not drawn) | active: -4.86
Cn1c(=NC(=O)CSCC(=O)N2CCOCC2)sc2ccccc21 | 0.141
C=CCn1c2ccccc2c2nnc(SCCCn3c(=O)[nH]c4ccccc43)nc21 | -0.699
COC(=O)C1(C)NC(c2cccs2)C2C(=O)N(c3ccccc3F)C(=O)C21 (stereo not drawn) | -0.835
Cc1ccc(S(=O)(=O)N2CCCN(S(=O)(=O)c3ccc(C)cc3)CC2)cc1 | -0.326
Cc1cccc(S(=O)(=O)C(C#N)c2nc3ccccc3nc2N2CC(C)OC(C)C2)c1 (stereo not drawn) | -0.264
COC(=O)c1cccc(NC(=O)NC2CCCN2S(=O)(=O)c2ccc(Cl)cc2)c1 (stereo not drawn) | -0.225
CN(c1ccccc1)c1ccc(/C=C(\C#N)c2nnc3n2CCCCC3)cc1[N+](=O)[O-] | -0.29
COc1ccc(OC)c(/C(O)=C/C(=O)C(=O)Nc2ccccc2OC)c1 | 0.0631
CCN(CC)c1ccc2cc(C(N)=O)c(=O)oc2c1 | -0.0435
Cc1c(NC(=S)NC(NC(=O)CC(C)C)C(Cl)(Cl)Cl)c(=O)n(-c2ccccc2)n1C (stereo not drawn) | 2.53
CCCC(=O)NC(=S)NNC(=O)c1ccc([N+](=O)[O-])cc1 | -0.394
CCCC(=O)Nc1cccc(NC(=O)c2ccc(C)c([N+](=O)[O-])c2)c1 | -0.0918
CCOc1ccccc1N1CC(C(=O)N2CCc3ccccc32)CC1=O (stereo not drawn) | 0.171

Compound | z-score
Cc1ccc(S(=O)(=O)NCC(=O)N(CC(=O)NC2CCCCC2)Cc2ccco2)cc1 | -0.184
CCOc1ccc(C2C(C(=O)c3ccco3)=C(O)C(=O)N2Cc2cccnc2)cc1OC (stereo not drawn) | -0.0112
COc1ccc(OC)c(NC(=O)Cc2coc3cc(C)cc(C)c23)c1 | -0.239
CCOc1ccc(C2CC(=O)c3c([nH]c(C(=O)OC)c3C)C2)cc1OC (stereo not drawn) | 0.845
CCOC(=O)N1CCN(CC(=O)Nc2cc(C)nn2-c2nc3ccccc3s2)CC1 | -0.328
Cc1ccccc1NC(=O)NCCCN1CCN(C2CCCCC2)CC1 | 0.102
O=C(c1ccc(Br)o1)N1CCN(c2ccccn2)CC1 | -0.179
CNC(=O)c1cc2cc(OC)ccc2n1CCN(Cc1ccccc1)Cc1ccccc1 | -0.503
Cc1cc(C)nc(Nc2ccc(N3CCOCC3)cc2)n1 | -0.038
O=C1c2ccccc2C(=O)N1CSc1nnc2c3ccccc3n(CCc3ccccc3)c2n1 | -0.382
COc1cc(C(N)=O)cc(Cl)c1OCc1ccccc1 | 0.223
N#Cc1c(N)c(C(=O)c2ccc(Br)cc2)n2c1CCC2 | -0.243
Cc1ccc(C(c2ccc(C)o2)c2cccc([N+](=O)[O-])c2O)o1 | -0.0995
CCCCOC(=O)CCc1c(C)[nH]c(=S)[nH]c1=O | -0.153
COc1ccc(N2Cc3ccccc3C2)cc1Cl | -0.173
CCOc1cc(CNc2ccc3c(c2)CCC3)ccc1OC | -0.0551
Cc1ccc(/C(O)=C2/C(=O)C(=O)N(CCCn3ccnc3)C2c2ccccn2)cc1 (stereo not drawn) | -0.0149
COC(=O)c1ccc(-c2nc3cc(N)ccc3o2)cc1 | 0.393
N#Cc1ccc(Oc2ccc(C(N)=O)cc2)cc1C#N | 0.194
O=c1oc2ccccc2c(N2CCCCC2)c1[N+](=O)[O-] | -0.252
COC(=O)C1=C(C)OC(N)=C(C#N)C1c1ccc(OC)c(OC)c1OC (stereo not drawn) | 0.342
Cc1ccc(C(=O)OC(C(=O)Nc2ccc(Cl)cc2C(F)(F)F)c2ccccc2)cc1 (stereo not drawn) | -0.813

Compound | z-score
CCN(CC)c1nc2n(c(=O)n1)CCN2CC | -0.952
Cn1c(C(=O)NC2CC2)cc2c(=O)n(C)c3ccccc3c21 | -0.0538
CC(C)c1ccc(N(C(=O)c2csnn2)C(C(=O)NC(C)(C)C)c2ccncc2)cc1 (stereo not drawn) | -0.236
COC1(OC)N=C(N)C2(C#N)C(c3ccccc3)NC(C)=CC12C#N (stereo not drawn) | -0.209
Cn1cnnc1SCC(=O)Nc1ccc(S(=O)(=O)N2CCCC2)cc1 | 0.56
CN(c1ccccc1)S(=O)(=O)c1ccc(Cl)c(C(=O)Nc2ccc(-c3nc4ccccc4[nH]3)cc2)c1 | -0.332
COc1ccc(CCNC(=O)CC(NC(=O)c2ccccc2Cl)c2ccccc2)cc1 (stereo not drawn) | -0.76
CCCCCc1nc2c(C#N)c(-c3ccc(Cl)cc3)ccn2n1 | 1.44
O=C(CSc1nc2ccccc2[nH]1)Nc1ccc2c(c1)CCC2 | -0.809
O=C(O)/C=C/C(=O)NC1CCS(=O)(=O)C1 (stereo not drawn) | 0.219
O=C(Oc1ccc(-c2nnco2)cc1)N(c1ccccc1)c1ccccc1 | 0.519
Cc1ccc(C)c(NC2=CC(=O)CC(C)(C)C2)c1C#N | 0.559
Cc1cc(C)c(Cn2cnc(-c3ccc([N+](=O)[O-])cc3)c2)c(C)c1 | -0.0263
COc1cccc(C(=O)Nc2c(C(N)=O)oc3ccccc23)c1 | -0.199
CCOC(=O)c1cnc(-c2ccccc2)nc1Oc1cccc(Cl)c1 | 1.32
COC(=O)C(O)(CC(=O)Nc1ccc(OC(F)(F)F)cc1)C(F)(F)F (stereo not drawn) | -0.408
CCOc1ccc(-n2c(-c3ccccc3)c[n+]3c2CCCCC3)cc1 | -0.0981
Cc1ccccc1OCCN1C(=O)NC2(CCc3ccccc32)C1=O (stereo not drawn) | -0.2
O=C(NS(=O)(=O)Oc1ccc(Cl)cc1)OC[C@@H]1CCCN2CCCC[C@H]12 | -0.306
COc1ccc(CCNC(=O)CSc2ccc(-c3ccccc3)nn2)cc1 | -0.255
Cc1ccsc1C=C1C(=O)c2ccccc2C1=O | -0.421
COc1ccccc1-c1ccc(Nc2ccc(C(=O)N3CCOCC3)cc2)nn1 | 0.077

Compound | z-score
CC(C)Oc1ccc(C(CC(=O)O)NC(=O)C2CCCCC2)cc1 (stereo not drawn) | -0.827
O=C(CC1Nc2ccccc2NC1=O)NCCCN1CCCCCC1 (stereo not drawn) | 2.07
CCCOc1ccc2c(CC)cc(=O)oc2c1C | -0.352
CCOC(=O)c1ccc(N2C(=O)c3n[nH]c(-c4ccco4)c3C2c2cccc([N+](=O)[O-])c2)cc1 (stereo not drawn) | -0.049
O=C(CN1C(=O)NC2(CCCC2)C1=O)N1CCN(C(=O)c2ccco2)CC1 | -1.15
O=C(N/N=C/c1ccc(Br)s1)c1ccccn1 | -0.156
COCCN(Cc1cc2cc(C)ccc2nc1Cl)C(=O)Nc1ccccc1C | 0.732
O=C(/C=C/c1ccc(F)cc1)N1CCN(c2ccccn2)CC1 | -0.488
Cc1ccc(/C=N/NC(=O)CC2N=C(Cc3ccccc3)NNC2=O)cc1 (stereo not drawn) | 0.126
COc1cc(C2C(C#N)=C(C)NC3=C2C(=O)CC(C)(C)C3)ccc1OCCO (stereo not drawn) | -0.124
CCS/C(N)=N/N=C/c1cc(C)ccc1O | -0.389
Cc1ccc(S(=O)(=O)NCCn2c(C)cc3ccccc32)cc1 | 0.31
CCCC(=O)Nc1ccc(C(=O)NCCCn2ccnc2)cc1 | -0.152
CC(=O)C1C(=O)c2c(cccc2[N+](=O)[O-])C1=Nc1ccccc1C (stereo not drawn) | 0.403
Cc1c(Cl)cccc1NC(=S)NCc1cccs1 | -0.13
Cc1ccc(Cn2ccc(NC(=O)c3nc4ncccn4n3)n2)cc1 | -0.0653
CCN(CC)S(=O)(=O)c1cccc(C(=O)NC(Cc2c[nH]c3ccccc23)c2nnc3n2CCCCC3)c1 (stereo not drawn) | -1
Cc1nc(Cl)sc1C(=O)NC(C)c1ccc(Cl)cc1 (stereo not drawn) | -0.34
CCOC(=O)CN1N=C(/C=C/c2ccc(C)cc2)CCC1=O | -0.0218
CSc1cccc(NC(=O)COc2cccc3ccccc23)c1 | -0.148
